From the supplement of paper PMC4967469 come the findings set out here.

Compound in the assay: CCc1nc(-c2cccc(C)c2)c(-c2ccnc(NC(=O)c3ccccc3)c2)s1 [TAK-715]
Description: Viability of human cancer cell lines after 72 h of drug (GDSC screen). Particulars: top dose inferred. The procedure:
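Human cancer cell lines in 384-well plates, medium with 10% serum, drug for 72 h over a 256-fold dose range (nine 2-fold or five 4-fold steps up to the top dose). Adherent lines were fixed and stained with the nucleic acid dye Syto60, suspension lines read with resazurin; signal relative to control wells, capped at 0 and 100%. One two-parameter sigmoid per drug and line, fitted in a mixed model over all curves with the slope shared within a line.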

The IC50 comes from the fitted curve, where viability falls to half of the control; a limit (>, <) means that the fit lies beyond the doses tested. AUC sums up the same curve from the lowest dose to the 256-fold higher top dose; the more sensitive the line, the further below 1. An inferred top dose was derived from the fitted curves, not read from the paper.

Take “SNU-61 (large intestine, adherent, top dose 20 µM)”: the AUC is 0.949 and the IC50 was greater than 20 µM.

As for “SNU-81 (large intestine, adherent, top dose 20 µM)”, the AUC was 0.94 and the IC50 is greater than 20 µM.

With “SNU-175 (large intestine, suspension, top dose 20 µM)”, the AUC worked out at 0.837 and the concentration for half-maximal inhibition (IC50) was 12.2 µM.

Consider “SNU-182 (liver, adherent, top dose 10.24 µM)”, for which the AUC came to 0.944 and the IC50 was greater than 10.2 µM.

For the cell line “SNU-387 (liver, adherent, top dose 20 µM)”, the AUC was determined as 0.984 and the IC50 was greater than 20 µM.

On to “SNU-398 (liver, adherent, top dose 20 µM)”, for which the AUC came out at 0.832 and the IC50 was determined as 13.5 µM.

For the cell line “SNU-407 (large intestine, adherent, top dose 20 µM)”, the AUC was 0.919 and the half-maximal inhibitory concentration (IC50) is greater than 20 µM.

With “SNU-423 (liver, adherent, top dose 20 µM)”, the AUC amounted to 0.905 and the IC50 is greater than 20 µM.

On to “SNU-449 (liver, adherent, top dose 20 µM)”, for which the AUC is 0.81 and the 50% inhibitory concentration (IC50) came out at 11.7 µM.

Turning to “SNU-475 (liver, adherent, top dose 20 µM)”, the AUC came out at 0.978 and the IC50 was greater than 20 µM.

Consider “SNU-1040 (large intestine, adherent, top dose 20 µM)”, for which the AUC is 0.822 and the IC50 was 17.4 µM.

Take “SNU-C1 (large intestine, suspension, top dose 20 µM)”: the AUC was 0.955 and the IC50 was greater than 20 µM.

Turning to “SNU-C2B (large intestine, adherent, top dose 20 µM)”, the AUC came out at 0.895 and the IC50 is greater than 20 µM.

In the case of “SNU-C5 (large intestine, adherent, top dose 20 µM)”, the AUC came out at 0.946 and the IC50 was greater than 20 µM.

On to “SR (lymphoid neoplasm, suspension, top dose 20 µM)”, for which the AUC is 0.879 and the IC50 stood at 17 µM.

For the cell line “ST486 (Burkitt lymphoma, suspension, top dose 20 µM)”, the AUC was 0.842 and the 50% inhibitory concentration (IC50) came to 11.8 µM.

Regarding “STS-0421 (soft tissue, adherent, top dose 20 µM)”, the AUC stood at 0.96 and the IC50 is greater than 20 µM.

In the case of “SU8686 (pancreas, adherent, top dose 20 µM)”, the AUC amounted to 0.965 and the IC50 is greater than 20 µM.

On to “SU-DHL-1 (anaplastic large cell lymphoma, suspension, top dose 20 µM)”, for which the AUC amounted to 0.918 and the IC50 was found to be 14.7 µM.

Take “SU-DHL-4 (B-cell lymphoma, suspension, top dose 20 µM)”: the AUC came out at 0.99 and the IC50 was greater than 20 µM.

As to “SU-DHL-5 (B-cell lymphoma, suspension, top dose 20 µM)”, the AUC stood at 0.88 and the IC50 is 12.1 µM.

For “SU-DHL-6 (B-cell lymphoma, suspension, top dose 20 µM)”, the AUC worked out at 0.876 and the IC50 turned out to be 11.5 µM.

For “SU-DHL-8 (B-cell lymphoma, suspension, top dose 20 µM)”, the AUC is 0.823 and the IC50 turned out to be 10.7 µM.

Turning to “SU-DHL-10 (B-cell lymphoma, suspension, top dose 20 µM)”, the AUC is 0.677 and the IC50 is 3.35 µM.

“SU-DHL-16 (B-cell lymphoma, suspension, top dose 20 µM)”: the AUC amounted to 0.903 and the IC50 stood at 13.4 µM.

In the case of “SUIT-2 (pancreas, adherent, top dose 20 µM)”, the AUC stood at 0.92 and the IC50 was greater than 20 µM.

As to “SUP-B15 (lymphoblastic leukaemia, suspension, top dose 20 µM)”, the AUC amounted to 0.699 and the half-inhibitory concentration (IC50) was determined as 4.41 µM.

Turning to “SUP-HD1 (Hodgkin lymphoma, suspension, top dose 20 µM)”, the AUC was 0.868 and the IC50 came out at 16.8 µM.

On to “SUP-M2 (anaplastic large cell lymphoma, suspension, top dose 20 µM)”, for which the AUC stood at 0.896 and the IC50 came to 14.3 µM.

Consider “SUP-T1 (T-cell lymphoblastic leukaemia, suspension, top dose 20 µM)”, for which the AUC stood at 0.688 and the IC50 came to 3.97 µM.

On to “SW13 (adrenal gland, adherent, top dose 20 µM)”, for which the AUC came to 0.966 and the IC50 was greater than 20 µM.

As for “SW48 (large intestine, adherent, top dose 20 µM)”, the AUC worked out at 0.944 and the IC50 was greater than 20 µM.

“SW156 (kidney, adherent, top dose 20 µM)”: the AUC came out at 0.941 and the IC50 was greater than 20 µM.

Regarding “SW620 (large intestine, adherent, top dose 20 µM)”, the AUC is 0.852 and the IC50 turned out to be 12.8 µM.

On to SW626 (ovary, adherent, top dose 20 µM), for which the AUC came to 0.915 and the IC50 is greater than 20 µM.

Consider “SW684 (fibrosarcoma, adherent, top dose 20 µM)”, for which the AUC was determined as 0.978 and the IC50 is greater than 20 µM.

In the case of “SW756 (cervix, adherent, top dose 20 µM)”, the AUC turned out to be 0.984 and the IC50 is greater than 20 µM.

As to “SW780 (bladder, adherent, top dose 20 µM)”, the AUC was 0.971 and the 50% inhibitory concentration (IC50) was greater than 20 µM.

For “SW837 (large intestine, adherent, top dose 20 µM)”, the AUC stood at 0.946 and the IC50 was greater than 20 µM.

Take “SW872 (soft tissue, adherent, top dose 20 µM)”: the AUC is 0.966 and the IC50 was greater than 20 µM.

In the case of “SW900 (lung squamous cell carcinoma, adherent, top dose 20 µM)”, the AUC is 0.984 and the IC50 is greater than 20 µM.

Consider “SW948 (large intestine, adherent, top dose 20 µM)”, for which the AUC is 0.939 and the IC50 is greater than 20 µM.

With “SW954 (urogenital system, adherent, top dose 20 µM)”, the AUC was 0.94 and the IC50 was greater than 20 µM.

In the case of “SW962 (urogenital system, adherent, top dose 20 µM)”, the AUC was 0.981 and the IC50 was greater than 20 µM.

Take “SW982 (soft tissue, adherent, top dose 20 µM)”: the AUC is 0.985 and the IC50 is greater than 20 µM.

Regarding “SW1088 (glioma, adherent, top dose 20 µM)”, the AUC stood at 0.977 and the IC50 was greater than 20 µM.

For “SW1116 (large intestine, adherent, top dose 20 µM)”, the AUC turned out to be 0.985 and the IC50 was greater than 20 µM.

Consider “SW1271 (small cell lung carcinoma, adherent, top dose 20 µM)”, for which the AUC worked out at 0.958 and the IC50 is greater than 20 µM.

“SW1417 (large intestine, adherent, top dose 20 µM)”: the AUC was 0.985 and the 50% inhibitory concentration (IC50) is greater than 20 µM.

Regarding “SW1463 (large intestine, adherent, top dose 20 µM)”, the AUC amounted to 0.961 and the IC50 was greater than 20 µM.

Turning to “SW1573 (lung adenocarcinoma, adherent, top dose 20 µM)”, the AUC came to 0.946 and the IC50 is greater than 20 µM.

For “SW1710 (bladder, adherent, top dose 20 µM)”, the AUC worked out at 0.948 and the IC50 was greater than 20 µM.

On to “SW1783 (glioma, adherent, top dose 20 µM)”, for which the AUC was 0.94 and the IC50 is greater than 20 µM.

Take “SW1990 (pancreas, adherent, top dose 20 µM)”: the AUC is 0.974 and the half-inhibitory concentration (IC50) is greater than 20 µM.

“Saos-2 (osteosarcoma, adherent, top dose 20 µM)”: the AUC was found to be 0.981 and the IC50 was greater than 20 µM.

On to SiHa (cervix, adherent, top dose 20 µM), for which the AUC worked out at 0.984 and the IC50 was greater than 20 µM.

As to T47D (breast, adherent, top dose 20 µM), the AUC came to 0.948 and the IC50 was greater than 20 µM.

“T84 (large intestine, adherent, top dose 20 µM)”: the AUC was 0.955 and the IC50 is greater than 20 µM.

For the cell line T98G (glioma, adherent, top dose 20 µM), the AUC amounted to 0.981 and the IC50 was greater than 20 µM.

Regarding “T-24 (bladder, adherent, top dose 20 µM)”, the AUC was 0.955 and the IC50 is greater than 20 µM.

Regarding “T-T (oesophagus, adherent, top dose 20 µM)”, the AUC came to 0.987 and the IC50 was greater than 20 µM.

For “TALL-1 (T-cell lymphoblastic leukaemia, suspension, top dose 20 µM)”, the AUC was determined as 0.941 and the IC50 was greater than 20 µM.

With “TC-71 (Ewing sarcoma, adherent, top dose 20 µM)”, the AUC was determined as 0.891 and the IC50 was determined as 16.5 µM.

In the case of “TCCSUP (bladder, adherent, top dose 20 µM)”, the AUC is 0.979 and the IC50 is greater than 20 µM.

Turning to “TE-1 (oesophagus, adherent, top dose 20 µM)”, the AUC was determined as 0.913 and the IC50 was greater than 20 µM.

“TE-4 (oesophagus, adherent, top dose 20 µM)”: the AUC turned out to be 0.873 and the IC50 came out at 19.1 µM.

With “TE-5 (oesophagus, adherent, top dose 20 µM)”, the AUC was determined as 0.939 and the IC50 was greater than 20 µM.
